According to the supplement of paper PMC12217912:
The other results are listed elsewhere or left out. The full chains were built here from the parent and the listed change. Values near 0.05 are background.

B1: TEV protease; numbered along this chain (parent)
chain: MGESLFKGPRDYNPISSSICHLTNESDGHTTSLYGIGFGPFIITNKHLFRRNNGTLVVQSLHGVFKVKDTTTLQQHLVDGRDMIIIRMPKDFPPFPQKLKFREPQREERICLVTTNFQTKSMSSMVSDTSCTFPSGDGIFWKHWIQTKDGQCGSPLVSTRDGFIVGIHSASNFTNTNNYFTSVPKNFMELLTNQEAQQWVSGWRLNADSVLWGGHKVFMVKPEEPFQPVKEATQL

Variants of: B1
Experiment: raw area under fraction-flipped curve 0-4 h after induction (AUC4h, not background-subtracted), DNA-recorder readout of cleavage of the substrate (dimensionless); higher = more cleavage of the substrate by the protease variant
Settings: temperature: 34 °C; time window: 0-4 h after rhamnose induction
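Further: Bxb1 expression induced with 0.2% (w/v) L-rhamnose at OD600 near 0.5, cultures sampled hourly, flipped fraction per protease–substrate barcode pair counted by paired-end Illumina sequencing.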

| Variant | area with substrate HNLYFQS | area with substrate PNLYFQS | area with substrate LNLYFQS | area with substrate NNLYFQS | area with substrate SNLYFQS | area with substrate TNLYFQS | area with substrate WNLYFQS | area with substrate YNLYFQS | area with substrate KNLYFQS | area with substrate MNLYFQS |
| --- | --- | --- | --- | --- | --- | --- | --- | --- | --- | --- |
| Q118L | 0.0617 | 0.0671 |  |  |  |  |  |  |  |  |
| Q118W | 0.0564 |  | 0.0638 | 0.0689 | 0.0671 | 0.0592 | 0.0662 | 0.0668 |  |  |
| T119A | 0.0676 |  | 0.0745 | 0.0731 | 0.0637 |  | 0.0563 | 0.0365 | 0.0599 | 0.0863 |
| D128T | 0.0565 | 0.0755 | 0.0648 |  |  |  | 0.0581 |  |  | 0.0646 |
| T129K | 0.0681 | 0.0588 | 0.0583 | 0.0621 |  |  | 0.0542 |  | 0.065 |  |
| C131E | 0.0528 |  |  |  |  |  |  |  |  |  |
| C131F | 0.0765 | 0.0714 |  |  |  |  |  |  |  |  |
| C131K | 0.0822 | 0.0277 |  |  | 0.074 | 0.068 | 0.0498 |  |  |  |
| D137Q | 0.0539 |  | 0.0633 | 0.0511 | 0.0627 | 0.0816 | 0.0663 |  | 0.0523 | 0.0656 |
| G138A | 0.0573 |  |  |  |  |  |  |  |  |  |
| F140S | 0.0459 |  |  |  | 0.059 |  |  |  |  |  |
| K142N | 0.0737 | 0.0643 | 0.0809 |  |  |  | 0.0576 |  | 0.0686 | 0.0745 |
| I145G | 0.0622 | 0.0702 |  |  | 0.0717 |  |  | 0.0623 | 0.0575 | 0.0572 |
| I145N | 0.0687 |  | 0.0612 |  | 0.0881 |  |  |  |  | 0.0622 |
| D149P | 0.0628 |  | 0.0892 |  |  | 0.0716 | 0.0639 |  |  | 0.0451 |
| S154I | 0.0744 | 0.0689 | 0.0664 |  | 0.0895 |  | 0.0667 |  |  |  |
| S158E | 0.055 |  |  |  | 0.0385 |  |  |  |  | 0.0574 |
| T159V | 0.0719 |  |  | 0.0596 | 0.0629 | 0.0696 |  |  |  |  |
| D161G | 0.0554 | 0.0755 | 0.0627 |  |  | 0.0758 | 0.0548 | 0.0447 | 0.0779 |  |

| Variant | area with substrate HNLYFQS | area with substrate PNLYFQS | area with substrate LNLYFQS | area with substrate NNLYFQS | area with substrate SNLYFQS | area with substrate TNLYFQS | area with substrate WNLYFQS | area with substrate YNLYFQS | area with substrate KNLYFQS | area with substrate MNLYFQS |
| --- | --- | --- | --- | --- | --- | --- | --- | --- | --- | --- |
| F163D | 0.0612 |  |  |  | 0.0253 | 0.0637 |  | 0.0605 |  | 0.0547 |
| F163K | 0.0604 |  |  |  |  | 0.0697 |  |  |  |  |
| F163M | 0.0605 |  | 0.0554 |  |  |  | 0.0343 |  |  |  |
| V165M | 0.0574 |  |  |  |  | 0.0744 |  |  |  |  |
| S171I | 0.0595 | 0.065 |  | 0.0487 |  |  | 0.0401 |  |  | 0.0481 |
| S171K | 0.0606 |  |  |  | 0.0786 |  |  |  |  |  |
| N172R | 0.0598 | 0.063 |  |  |  | 0.0617 | 0.0771 | 0.0527 |  |  |
| F173T | 0.0522 | 0.0616 |  | 0.059 |  | 0.0575 | 0.0652 |  | 0.0406 | 0.0684 |
| N175Q | 0.0631 | 0.0609 |  |  |  | 0.0537 | 0.055 | 0.0536 |  | 0.0603 |
| T176Q | 0.0673 |  |  |  |  |  | 0.0575 |  | 0.0644 |  |
| N177G | 0.0687 |  |  | 0.0546 |  | 0.0595 |  | 0.0501 | 0.0689 |  |
| N177M | 0.069 | 0.0539 | 0.0752 |  |  |  |  | 0.0601 | 0.105 |  |
| N178R | 0.0614 | 0.0745 |  |  | 0.0761 | 0.0585 | 0.0532 | 0.0734 |  |  |
| N178Y | 0.0899 |  |  |  |  | 0.0791 |  | 0.0799 | 0.0959 | 0.082 |
| T181H | 0.0639 | 0.059 |  |  |  | 0.0529 |  |  |  | 0.0604 |
| T181V | 0.055 |  | 0.0695 | 0.0646 |  | 0.0578 | 0.0685 | 0.0629 | 0.0693 |  |
| S182C | 0.0551 | 0.0646 |  |  |  | 0.0668 | 0.0532 |  |  |  |
| S182F | 0.0396 | 0.0565 | 0.0669 |  | 0.0574 | 0.0431 | 0.0467 |  |  | 0.0499 |
| K185A | 0.0691 |  | 0.0759 | 0.0659 | 0.0679 |  | 0.0647 |  |  |  |

| Variant | area with substrate HNLYFQS | area with substrate PNLYFQS | area with substrate LNLYFQS | area with substrate NNLYFQS | area with substrate SNLYFQS | area with substrate TNLYFQS | area with substrate WNLYFQS | area with substrate YNLYFQS | area with substrate KNLYFQS | area with substrate MNLYFQS |
| --- | --- | --- | --- | --- | --- | --- | --- | --- | --- | --- |
| K185V | 0.0685 |  | 0.072 |  |  |  | 0.0594 |  |  | 0.0579 |
| L190N | 0.0583 |  |  |  | 0.069 | 0.0628 |  | 0.0683 |  | 0.029 |
| L190P | 0.0672 | 0.0611 | 0.0562 |  | 0.0612 |  | 0.0484 | 0.0391 | 0.0649 | 0.0648 |
| N193C | 0.0639 |  |  |  |  | 0.0747 | 0.065 |  |  |  |
| N193Q | 0.0851 |  | 0.0585 |  |  |  |  |  |  |  |
| Q194W | 0.0414 |  | 0.0551 | 0.0641 |  |  | 0.0454 |  |  |  |
| E195L | 0.0732 | 0.0436 | 0.0598 |  | 0.0695 |  | 0.0428 |  | 0.0545 |  |
| Q198S | 0.0599 | 0.0678 | 0.0451 | 0.0825 | 0.0634 | 0.0352 | 0.0632 | 0.0581 | 0.0691 |  |
| W199S | 0.0477 | 0.061 | 0.0478 |  | 0.0954 |  |  | 0.0598 | 0.0697 |  |
| S201E | 0.0488 | 0.0519 | 0.0672 | 0.095 |  |  | 0.0734 |  | 0.0534 | 0.0639 |
| W203D | 0.0436 |  |  | 0.0691 |  |  |  | 0.0627 |  |  |
| R204D | 0.0594 | 0.0618 | 0.057 | 0.0732 | 0.0477 | 0.054 | 0.0597 | 0.0559 |  | 0.0856 |
| N206L | 0.066 |  |  |  |  |  |  |  |  |  |
| S209E | 0.0619 | 0.0591 |  |  |  | 0.0568 | 0.0736 |  |  |  |
| S209H | 0.0491 | 0.076 | 0.0674 |  | 0.0503 |  |  |  | 0.068 |  |
| L211T | 0.0521 |  |  |  |  |  |  |  |  |  |
| W212N | 0.0482 |  |  |  |  |  | 0.0471 |  |  |  |
| W212S | 0.0612 | 0.0734 |  |  |  | 0.008 |  | 0.0614 |  | 0.0658 |
| G213C | 0.062 | 0.0537 | 0.0567 |  |  |  |  | 0.0252 | 0.0652 |  |

Same assay, conditions: temperature: 34 °C; time window: 0-4 h after rhamnose induction

| Variant | area with substrate RNLYFQS | area with substrate VNLYFQS | area with substrate INLYFQS | area with substrate QNLYFQS |
| --- | --- | --- | --- | --- |
| T119A | 0.0487 | 0.0599 |  |  |
| D128T |  | 0.0883 | 0.0603 |  |
| K142N | 0.0732 |  | 0.056 | 0.0832 |
| I145N | 0.0819 |  |  |  |
| T159V |  |  | 0.0793 |  |
| D161G |  | 0.0616 | 0.0547 |  |
| N172R |  |  | 0.0706 |  |
| F173T |  | 0.0572 | 0.066 | 0.0644 |
| N177G |  | 0.0699 | 0.0542 |  |
| N178R |  | 0.0567 | 0.0807 |  |
| N178Y |  |  | 0.0975 |  |
| T181H |  | 0.066 | 0.0432 |  |
| T181V |  |  | 0.0647 |  |
| S182F |  |  | 0.0486 |  |
| K185V |  | 0.0711 | 0.0748 |  |
| N193Q |  | 0.0619 |  |  |
| Q194W |  |  | 0.0476 |  |
| E195L |  |  | 0.0539 | 0.0731 |
| Q198S |  | 0.074 | 0.0742 | 0.0703 |
| S201E |  | 0.0749 | 0.0765 | 0.0638 |
| W203D |  |  | 0.0736 |  |
| R204D |  | 0.0476 | 0.0642 |  |
| S209E |  |  |  | 0.0929 |
| W212S |  |  | 0.126 |  |
| G213C | 0.0641 | 0.0735 | 0.0549 |  |
